Assay results as given in patent US12286661B2, “Methods for making high intensity sweeteners” (Firmenich Incorporated, priority 2018, dated 2025).

B1: SEQ ID NO 940: fusion protein having cucurbitadienol synthase activity (protein)
chain: MWNKTKKTQGSAAPGSGSGSGMWRLKVGKESVGEKEEKWIKSISNHLGRQVWEFCSGENENDDDEAIAVANNSASKFENARNHFRNNRFHRKQSSDLFLAIQCEKEIIRNGAKNEGTTKVKEGEDVKKEAVKNTLERALSFYSAVQTSDGNWASDLGGPMFLLPGLVIALYVTGVLNSVLSKHHRQEMCRYIYNHQNEDGGWGLHIEGSSTMFGSALNYVALRLLGEAADGGEHGAMTKARSWILERGGATAITSWGKLWLSVLGVYEWSGNNPLPPEFWLLPYSLPFHPGRMWCHCRMVYLPMSYLYGKRFVGPITPIVLSLRKELYTIPYHEIDWNRSRNTCAKEDLYYPHPKMQDILWGSIYHVYEPLFSGWPGKRLREKAMKIAMEHIHYEDENSRYICLGPVNKVLNMLCCWVEDPYSDAFKFHLQRIPDYLWLAEDGMRMQGYNGSQLWDTAFSIQAIISTKLIDTFGPTLRKAHHFVKHSQIQEDCPGDPNVWFRHIHKGAWPFSTRDHGWLISDCTAEGLKASLMLSKLPSKIVGEPLEKNRLCDAVNVLLSLQNENGGFASYELTRSYPWLELINPAETFGDIVIDYSYVECTSATMEALALFKKLHPGHRTKEIDAAIAKAANFLENMQKTDGSWYGCWGVCFTYAGWFGIKGLVAAGRTYNNCVAIRKACNFLLSKELPGGGWGESYLSCQNKVYTNLEGNKPHLVNTAWVMMALIEAGQGERDPAPLHRAARLLINSQLESGDFPQQEIMGVFNKNCMITYAAYRNIFPIWALGEYSHRVLDM
modifications: SS3b-C1 Full Gene AA seq
B2: SEQ ID NO 952: fusion protein having cucurbitadienol synthase activity (protein)
chain: MTGLNGDADSDLLGSAAPGSGSGSGMWRLKVGKESVGEKEEKWIKSISNHLGRQVWEFCSGENENDDDEAIAVANNSASKFENARNHFRNNRFHRKQSSDLFLAIQCEKEIIRNGAKNEGTTKVKEGEDVKKEAVKNTLERALSFYSAVQTSDGNWASDLGGPMFLLPGLVIALYVTGVLNSVLSKHHRQEMCRYIYNHQNEDGGWGLHIEGSSTMFGSALNYVALRLLGEAADGGEHGAMTKARSWILERGGATAITSWGKLWLSVLGVYEWSGNNPLPPEFWLLPYSLPFHPGRMWCHCRMVYLPMSYLYGKRFVGPITPIVLSLRKELYTIPYHEIDWNRSRNTCAKEDLYYPHPKMQDILWGSIYHVYEPLFSGWPGKRLREKAMKIAMEHIHYEDENSRYICLGPVNKVLNMLCCWVEDPYSDAFKFHLQRIPDYLWLAEDGMRMQGYNGSQLWDTAFSIQAIISTKLIDTFGPTLRKAHHFVKHSQIQEDCPGDPNVWFRHIHKGAWPFSTRDHGWLISDCTAEGLKASLMLSKLPSKIVGEPLEKNRLCDAVNVLLSLQNENGGFASYELTRSYPWLELINPAETFGDIVIDYSYVECTSATMEALALFKKLHPGHRTKEIDAAIAKAANFLENMQKTDGSWYGCWGVCFTYAGWFGIKGLVAAGRTYNNCVAIRKACNFLLSKELPGGGWGESYLSCQNKVYTNLEGNKPHLVNTAWVMMALIEAGQGERDPAPLHRAARLLINSQLESGDFPQQEIMGVFNKNCMITYAAYRNIFPIWALGEYSHRVLDM
modifications: SS3a-A2 Full Gene AA seq
B3: SEQ ID NO 944: fusion protein having cucurbitadienol synthase activity (protein)
chain: MAKEDTVKLKRGSAAPGSGSGSGMWRLKVGKESVGEKEEKWIKSISNHLGRQVWEFCSGENENDDDEAIAVANNSASKFENARNHFRNNRFHRKQSSDLFLAIQCEKEIIRNGAKNEGTTKVKEGEDVKKEAVKNTLERALSFYSAVQTSDGNWASDLGGPMFLLPGLVIALYVTGVLNSVLSKHHRQEMCRYIYNHQNEDGGWGLHIEGSSTMFGSALNYVALRLLGEAADGGEHGAMTKARSWILERGGATAITSWGKLWLSVLGVYEWSGNNPLPPEFWLLPYSLPFHPGRMWCHCRMVYLPMSYLYGKRFVGPITPIVLSLRKELYTIPYHEIDWNRSRNTCAKEDLYYPHPKMQDILWGSIYHVYEPLFSGWPGKRLREKAMKIAMEHIHYEDENSRYICLGPVNKVLNMLCCWVEDPYSDAFKFHLQRIPDYLWLAEDGMRMQGYNGSQLWDTAFSIQAIISTKLIDTFGPTLRKAHHFVKHSQIQEDCPGDPNVWFRHIHKGAWPFSTRDHGWLISDCTAEGLKASLMLSKLPSKIVGEPLEKNRLCDAVNVLLSLQNENGGFASYELTRSYPWLELINPAETFGDIVIDYSYVECTSATMEALALFKKLHPGHRTKEIDAAIAKAANFLENMQKTDGSWYGCWGVCFTYAGWFGIKGLVAAGRTYNNCVAIRKACNFLLSKELPGGGWGESYLSCQNKVYTNLEGNKPHLVNTAWVMMALIEAGQGERDPAPLHRAARLLINSQLESGDFPQQEIMGVFNKNCMITYAAYRNIFPIWALGEYSHRVLDM
modifications: SS3b-B10 Full Gene AA seq
B4: SEQ ID NO 956: fusion protein having cucurbitadienol synthase activity (protein)
chain: MASNQLEPLQTGSAAPGSGSGSGMWRLKVGKESVGEKEEKWIKSISNHLGRQVWEFCSGENENDDDEAIAVANNSASKFENARNHFRNNRFHRKQSSDLFLAIQCEKEIIRNGAKNEGTTKVKEGEDVKKEAVKNTLERALSFYSAVQTSDGNWASDLGGPMFLLPGLVIALYVTGVLNSVLSKHHRQEMCRYIYNHQNEDGGWGLHIEGSSTMFGSALNYVALRLLGEAADGGEHGAMTKARSWILERGGATAITSWGKLWLSVLGVYEWSGNNPLPPEFWLLPYSLPFHPGRMWCHCRMVYLPMSYLYGKRFVGPITPIVLSLRKELYTIPYHEIDWNRSRNTCAKEDLYYPHPKMQDILWGSIYHVYEPLFSGWPGKRLREKAMKIAMEHIHYEDENSRYICLGPVNKVLNMLCCWVEDPYSDAFKFHLQRIPDYLWLAEDGMRMQGYNGSQLWDTAFSIQAIISTKLIDTFGPTLRKAHHFVKHSQIQEDCPGDPNVWFRHIHKGAWPFSTRDHGWLISDCTAEGLKASLMLSKLPSKIVGEPLEKNRLCDAVNVLLSLQNENGGFASYELTRSYPWLELINPAETFGDIVIDYSYVECTSATMEALALFKKLHPGHRTKEIDAAIAKAANFLENMQKTDGSWYGCWGVCFTYAGWFGIKGLVAAGRTYNNCVAIRKACNFLLSKELPGGGWGESYLSCQNKVYTNLEGNKPHLVNTAWVMMALIEAGQGERDPAPLHRAARLLINSQLESGDFPQQEIMGVFNKNCMITYAAYRNIFPIWALGEYSHRVLDM
modifications: SS3f-A8 Full Gene AA seq
B5: SEQ ID NO 948: fusion protein having cucurbitadienol synthase activity (protein)
chain: MSFQIETVRTGSAAPGSGSGSGMWRLKVGKESVGEKEEKWIKSISNHLGRQVWEFCSGENENDDDEAIAVANNSASKFENARNHFRNNRFHRKQSSDLFLAIQCEKEIIRNGAKNEGTTKVKEGEDVKKEAVKNTLERALSFYSAVQTSDGNWASDLGGPMFLLPGLVIALYVTGVLNSVLSKHHRQEMCRYIYNHQNEDGGWGLHIEGSSTMFGSALNYVALRLLGEAADGGEHGAMTKARSWILERGGATAITSWGKLWLSVLGVYEWSGNNPLPPEFWLLPYSLPFHPGRMWCHCRMVYLPMSYLYGKRFVGPITPIVLSLRKELYTIPYHEIDWNRSRNTCAKEDLYYPHPKMQDILWGSIYHVYEPLFSGWPGKRLREKAMKIAMEHIHYEDENSRYICLGPVNKVLNMLCCWVEDPYSDAFKFHLQRIPDYLWLAEDGMRMQGYNGSQLWDTAFSIQAIISTKLIDTFGPTLRKAHHFVKHSQIQEDCPGDPNVWFRHIHKGAWPFSTRDHGWLISDCTAEGLKASLMLSKLPSKIVGEPLEKNRLCDAVNVLLSLQNENGGFASYELTRSYPWLELINPAETFGDIVIDYSYVECTSATMEALALFKKLHPGHRTKEIDAAIAKAANFLENMQKTDGSWYGCWGVCFTYAGWFGIKGLVAAGRTYNNCVAIRKACNFLLSKELPGGGWGESYLSCQNKVYTNLEGNKPHLVNTAWVMMALIEAGQGERDPAPLHRAARLLINSQLESGDFPQQEIMGVFNKNCMITYAAYRNIFPIWALGEYSHRVLDM
modifications: SS3a-D8Full Gene AA seq

These molecules were tested on cucurbitadienol synthase activity (assay: Cucurbitadienol synthase activities of fusion proteins in yeast strain with oxidosqualene boost, LCMS). Details: average % activities over the average activities of the parent enzyme (Cucumis melo cucurbitadienol synthase).
Format: cell-based, S. cerevisiae
Experimental: For analyzing cucurbitadienol, the first LCMS method included the use of C4 2.1×100 mm column, gradient 1 to 95% B for 6 minutes, and at flow rate of 0.55 ml/min; and the second LCMS method included the use of Waters Acquity UPLC Protein BEH C4 2.1×100 […], 1.7 μm, with guard, 62 to 67% B for 2 min, 100% B for 1 min, and at flow rate of 0.9 ml/min and ESI source positive single ion monitoring of 427 and 409.
The gene encoding for a cucurbitadienol synthase form Cucumis melo was codon optimized (SEQ ID: 907) and used as a starting point for generating a library of modifications. Modifications were introduced through standard molecular biology techniques consisting of fusion peptides at the N-terminus (i.e., 5′) or C-terminus (i.e., 3′) end of the enzyme. Plasmids libraries of modified cucurbitadienol synthase genes were transformed into a yeast strain with oxidosqualene boost. Enzyme activities were measured by ratios of peak heights or areas of 409 and 427 positive mass fragments at the expected retention times for cucurbitadienol vs. an internal standard using LCMS method 2 described above. Enzyme performance were scored as average % activities over the average activities of the parent enzyme (n=8). Step 1 sequences of the enzymes and the sequences that encode the enzyme can be found in SEQ ID NOs: 951-1012. Step 1 sequence also include the fusions SS2c-G10, SS2e-A7b, SS2d-G11. SS2e-A7a, SS4d-G5, SS4d-C7, SS3b-D8, and SS2c-A10a are disclosed herein.
A collection or library of S. cerevisiae in-frame fusion polynucleotdies for a cucurbitadienol synthase gene (DNA coding sequence provided in SEQ ID NO: 907, and protein sequence provided in SEQ ID NO: 902) was prepared. The in-frame fusion polynucleotides were cloned into a yeast vector molecule to generate fusion proteins.
Various fusion proteins were generated and tested for cucurbitadienol synthase activities.
In the case of B1, the “Activity (as compared to the parent)” value is reported as 109%. B2 was tested, and the “Activity (as compared to the parent)” value was 90%. For B3, the “Activity (as compared to the parent)” value was 107%. For B4, the “Activity (as compared to the parent)” value was 85%. In the case of B5, the “Activity (as compared to the parent)” value is reported as 102%.
